# Data as given in PMC4336329 (PLoS ONE, 2015).
# The campaign covered roughly 310,000 compounds. About 2,200 (0.71%) showed an effect of 50% or more. The effect is printed as a negative number. This is one part of the list.
# Biological target: human ether-à-go-go-related gene (hERG) potassium channel (human, UniProt Q12809)
# Experiment: primary screen, population patch clamp on CHO cells stably expressing hERG
# Chain of human ether-à-go-go-related gene (hERG) potassium channel (Q12809 whole entry, looked up): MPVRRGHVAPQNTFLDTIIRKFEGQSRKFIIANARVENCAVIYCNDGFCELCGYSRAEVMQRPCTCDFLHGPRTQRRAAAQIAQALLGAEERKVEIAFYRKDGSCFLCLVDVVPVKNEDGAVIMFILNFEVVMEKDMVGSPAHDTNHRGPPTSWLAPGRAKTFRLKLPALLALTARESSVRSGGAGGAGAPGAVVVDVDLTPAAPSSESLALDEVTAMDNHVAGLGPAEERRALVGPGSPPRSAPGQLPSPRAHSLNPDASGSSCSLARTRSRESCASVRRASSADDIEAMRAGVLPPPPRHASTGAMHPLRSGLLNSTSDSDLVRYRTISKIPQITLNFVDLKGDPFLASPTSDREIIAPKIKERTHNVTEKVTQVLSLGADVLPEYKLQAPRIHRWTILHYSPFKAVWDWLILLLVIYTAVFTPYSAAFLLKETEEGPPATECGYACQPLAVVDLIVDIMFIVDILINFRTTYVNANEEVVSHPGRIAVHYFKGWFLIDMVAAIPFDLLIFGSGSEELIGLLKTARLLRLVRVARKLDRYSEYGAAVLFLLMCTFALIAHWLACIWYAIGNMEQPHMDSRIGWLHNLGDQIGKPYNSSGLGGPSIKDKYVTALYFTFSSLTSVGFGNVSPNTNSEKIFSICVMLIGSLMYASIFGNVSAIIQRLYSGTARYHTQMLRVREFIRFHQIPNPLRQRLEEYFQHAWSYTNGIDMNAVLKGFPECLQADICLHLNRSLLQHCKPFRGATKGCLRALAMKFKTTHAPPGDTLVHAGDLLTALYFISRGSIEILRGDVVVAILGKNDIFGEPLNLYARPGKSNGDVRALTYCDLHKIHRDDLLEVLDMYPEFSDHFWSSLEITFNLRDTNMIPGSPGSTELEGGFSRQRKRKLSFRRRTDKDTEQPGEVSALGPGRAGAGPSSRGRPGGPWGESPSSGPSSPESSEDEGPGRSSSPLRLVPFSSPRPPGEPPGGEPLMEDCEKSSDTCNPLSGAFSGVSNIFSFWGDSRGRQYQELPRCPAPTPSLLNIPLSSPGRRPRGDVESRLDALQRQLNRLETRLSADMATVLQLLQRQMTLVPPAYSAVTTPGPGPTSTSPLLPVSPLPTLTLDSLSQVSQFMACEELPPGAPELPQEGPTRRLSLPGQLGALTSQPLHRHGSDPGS
row,SMILES,"hERG current change (%, negative = inhibition) at 1uM"
1,CC(C)(C)C1CCC(=O)N(CCOc2ccccc2)CC1 (stereo not drawn),6.17%
2,CC(NC(=O)Oc1ccccc1)C(c1cccs1)N1CCOCC1 (stereo not drawn),-0.0387%
3,Cc1ccc(NC(=O)CNc2cccc(C)c2C)c(C)c1,11.9%
4,NC(=O)C1(N2CCCCC2)CCN(CC(=O)Nc2ccccc2-c2ccccc2)CC1,15.5%
5,Cc1ccc2oc(=O)c3cc(C(=O)NCCN4CCc5ccccc5C4)sc3c2c1,-0.641%
6,COc1cccc(CNc2ccc3[nH]c(=O)[nH]c3c2)c1OCc1ccc(F)cc1,11.1%
7,N#CCCN(CCC#N)c1nncs1,-3.95%
8,C[N+](C)(C)CCCCCCC(=O)/C=N/O.[I-],12.2%
9,CCOc1ccc(CCNC(=O)c2cccs2)cc1OCC,13.7%
10,COC(=O)C1=C(c2ccc(F)cc2OCc2ccccc2)C[C@@H]2CC[C@H]1N2C(=O)NCC1CC1,2.35%
11,Cc1onc(-c2c(Cl)cccc2Cl)c1COC(=O)c1ccc(Cl)cc1[N+](=O)[O-],17.7%
12,CC(C)c1ccc(NC(=O)C2CC(=O)N=C(N)S2)cc1 (stereo not drawn),3.33%
13,CCCn1nc2cc(C(=O)NC3CCCc4ccccc43)ccc2c1OCC (stereo not drawn),17%
14,Cc1ccc(-c2nnc(SC(C)C(=O)NCC3CCCO3)nc2-c2ccc(C)cc2)cc1 (stereo not drawn),13.7%
15,COc1ccc(N2CCN(C(=O)CSc3ncnc4c3cnn4-c3ccccc3C)CC2)cc1,9.02%
16,CC(NC(=O)Cc1ccccc1F)c1ccc(F)cc1 (stereo not drawn),13.6%
17,CCCc1nc2c(nnn2Cc2ccccc2F)c(=O)[nH]1,8.3%
18,CNC(=O)c1cc2cccc(OC)c2oc1=O,8.51%
19,COc1ccccc1N(C(=O)c1ccco1)C(C(=O)NC1CCCC1)c1cccs1 (stereo not drawn),2.48%
20,Cc1cc2oc(C(=O)NCCc3ccc(S(N)(=O)=O)cc3)c(C)c2cc1C,17.3%
21,Cc1nc(NC(=S)Nc2ccccc2)sc1C,8.68%
22,N#C/C(=C\c1ccc(N2CCOCC2)o1)C(=O)Nc1ccc(O)cc1,0.297%

row,SMILES,"hERG current change (%, negative = inhibition) at 1uM"
1,CCOc1ccc(NS(=O)(=O)c2ccc(C(=O)NCC(C)(C)N3CCOCC3)cc2)cc1,-3.59%
2,CC(C)CN1CCC(=O)N(CCSc2ccc(Br)cc2)CC1,-21.6%
3,Cc1ccc(C)c(C(=O)COC(=O)CNS(=O)(=O)c2ccccc2)c1,17%
4,COc1ccccc1CN(CC(=O)NCc1ccco1)C(=O)CNS(=O)(=O)c1ccc(C)cc1,0.647%
5,CN(CCc1ccccc1)Cc1c[nH]c2ccccc12.O=C(O)C(=O)O,-22.9%
6,COc1ccccc1OCCNC(=O)c1c(-c2ccccc2Cl)noc1C,9.26%
7,CCCNC(=O)N1CCC(n2nccc2NC(=O)CCOc2ccccc2)CC1,12.9%
8,O=C(NCCC1=CCCCC1)C1CC(=O)N(C2CCCCCC2)C1 (stereo not drawn),12.1%
9,CCOCCCNC(=O)CCCn1nc(C)n2c(cc3sccc32)c1=O,-5.71%
10,CC(C)(C)N1C(=O)c2ccc(C(=O)Nc3ccc(O)cc3)cc2C1=O,8.41%
11,O=C(CN(Cc1ccccc1)S(=O)(=O)c1ccc2c(c1)OCCO2)Nc1ccc2c(c1)OCCO2,1.27%
12,COc1ccc([C@@H]2[C@@H]3C(=O)N(C(C)(C)C)C(=O)[C@@H]3[C@]3(C)C(=O)N(c4ccc(C)cc4)C(=O)N23)cc1,-4.96%
13,O=C(COC(=O)/C=C/c1cccs1)Nc1ccc2ccccc2c1,0.199%
14,CC1(C)CC(=O)C/C(=N\NC(=O)c2cccs2)C1,11.9%
15,CC(=O)Nc1cccc(NC(=O)Cc2cccs2)c1,11.5%
16,Cc1cccc(CCNC(=O)C2CCN(S(=O)(=O)c3cccc4nsnc34)CC2)c1,7.1%
17,CC(C)(C)c1ccc(Cn2cnc(-c3ccc([N+](=O)[O-])cc3)c2)cc1,3.3%
18,O=C(CCc1c[nH]c2ccccc12)OCc1ccc(Br)cc1,16%
19,COc1ccc(N(CC(=O)Nc2ccc3c(c2)OCO3)S(=O)(=O)c2ccc(C)cc2)cc1OC,10.7%
20,Cc1ccccc1CC(=O)Nc1cc(C(C)(C)C)on1,4.84%
21,CC1CCN(C(=O)CSc2nc3c(c(=O)n(C)c(=O)n3C)n2C)CC1,15.6%
22,C#CCSc1cc(C(F)(F)F)nc(-c2ccccn2)n1,6.6%

row,SMILES,"hERG current change (%, negative = inhibition) at 1uM"
1,O=C(O)c1ncn(Cc2ccc(Br)cc2)c1C(=O)O,12.3%
2,Nc1ccc(O)cc1C(=O)OCC(=O)c1ccc(C2CCCCC2)cc1,9.26%
3,COc1ccc(S(=O)(=O)NCCCn2ccnc2)cc1C(C)(C)C,-17.4%
4,Cc1c(C(=O)N2CCCCC2)nnn1-c1nonc1N,5.84%
5,CCN(CC)CCNc1nc(-c2ccccc2)nnc1C(F)(F)F,-6.37%
6,COc1ccc(CC2C(=O)N(c3ccccc3)C(=O)N(c3ccccc3)C2=O)c(OC)c1,9.85%
7,Cc1onc(-c2c(F)cccc2Cl)c1C(=O)NCCN1CCNC1=O,12.1%
8,CNC(=O)C1C2C=CC3(O2)C1C(=O)N(C1CC1)C3C(=O)NCc1ccc(OC)cc1 (stereo not drawn),10.4%
9,Cc1ccc(CSCC(=O)N/N=C/c2ccc(OCC(=O)Nc3ccc(C)cc3)cc2)cc1,10.8%
10,Cc1cccc(Oc2c([N+](=O)[O-])c(=O)n(C)c3ccccc23)c1,7.25%
11,O=C(Nc1c(F)cc(F)cc1Br)c1ccco1,5.74%
12,COc1cc2c(cc1OC)/C(=C/C(=O)c1ccccc1F)NCC2,5.54%
13,O=C(N[C@@H](Cc1ccccc1)C(=O)NC1CC1)c1ccc(Cl)cc1,6.16%
14,CCOc1ccc(CCNC(=O)COn2nnc3ccc(S(=O)(=O)N4CCOCC4)cc32)cc1OCC,4.85%
15,COc1ccc(NC(=O)C(=O)NCC(=O)Nc2cc(OC)ccc2OC)cc1,5.79%
16,Cc1cccc(-n2c(O)c(C=NCc3ccccn3)c3ccccc3c2=O)c1,9.42%
17,CCOC(=O)c1sc(N(Cc2ccccc2)C(=O)CN2C(=O)CN(C)C2=O)nc1C,-0.796%
18,COc1ccc(C(=O)N[C@H]2CCCCNC2=O)cc1OC1CCN(C(C)C)CC1,9.99%
19,C=CCS/C(N)=N\N=C\c1c(O)ccc2ccccc12,13.3%
20,Cn1c(CO)cnc1SCC(=O)c1ccc(F)cc1,11.2%
21,O=C(Cc1ccccc1)Nc1ccc(N2CCCC2)cc1,-0.653%
22,COc1cccc(-c2csc(N3CCN(C(=S)Nc4ccccc4)CC3)n2)c1,6.08%

row,SMILES,"hERG current change (%, negative = inhibition) at 1uM"
1,COc1cc(C2N(c3ccc(Cl)c(Cl)c3)C(=O)C3CCCN32)cc(OC)c1OC (stereo not drawn),4.04%
2,CCCOc1ccc(C2/C(=C(/O)c3ccc(F)cc3)C(=O)C(=O)N2CCCN(C)C)cc1 (stereo not drawn),12.6%
3,Cn1cccc1/C=C1\SC(=S)N(NC(=O)c2ccccc2O)C1=O,9.79%
4,Cc1ccc(S(=O)(=O)N2CCCCC2)cc1C(=O)NCc1ccccn1,13.8%
5,Cc1ccccc1OC(C)C(=O)Nc1ccc(S(=O)(=O)Nc2nccs2)cc1 (stereo not drawn),8.07%
6,O=C1COc2ccc(C(=O)COc3ccc(Cl)cc3Br)cc2N1,2.1%
7,Cc1cc(NC(=O)CCC(=O)N(c2ccccc2F)C(C(=O)NC2CCCC2)c2ccccc2)no1 (stereo not drawn),18.4%
8,O=C(Cc1cscn1)c1ccc(O)cc1O,-2.76%
9,CC1(C)CC(=O)C(C(=O)C2CCN(S(=O)(=O)c3ccccc3)CC2)C(=O)C1,8.19%
10,Cc1c(=O)n(OCc2cccc(F)c2)c2ccccc2[n+]1[O-],-0.81%
11,N#Cc1nc(-c2ccc(Cl)cc2)oc1N1CCCCC1,15.6%
12,COc1ccc2c(c1)c1ncn(CCc3ccccc3)c(=O)c1n2C,-0.629%
13,NC(=O)CC[C@@H]1NC(=O)[C@@H]2CCCN2C(=O)c2cc([N+](=O)[O-])cc(F)c2NCCC[C@@H](C(N)=O)NC1=O,-15.8%
14,CCNC(=O)c1ccc2c(c1)S(=O)(=O)c1ccccc1C2=O,-25.4%
15,O=C(OCC(=O)N1CCCCC1)c1cccc(NS(=O)(=O)c2ccccc2)c1,12.4%
16,O=c1oc2ccccc2cc1-c1nc2ccccc2o1,7.04%
17,Cc1ccc(NC(=O)c2cccc(N3C(=O)C4C5CCC(C5)C4C3=O)c2)c(C)c1 (stereo not drawn),12.4%
18,Oc1ccccc1C(=S)N1CCCCCC1,6.21%
19,COc1ccccc1OCc1cc(C(=O)NCCN2CCCC(O)C2)no1 (stereo not drawn),6.34%
20,CCCCn1c(O)c(/C=N/NC(=O)c2ccncc2)c(=O)[nH]c1=S,14.6%
21,COc1ccc(C2(C(=O)Nc3ccc(OC)cc3OC)CCCC2)cc1,14.6%
